Results on 14 molecules are retold here after publication PMC12136788.

The chains are these.
T1: UNK ZnF1-3 (human, UniProt Q9C0B0 31-174)
T1 sequence: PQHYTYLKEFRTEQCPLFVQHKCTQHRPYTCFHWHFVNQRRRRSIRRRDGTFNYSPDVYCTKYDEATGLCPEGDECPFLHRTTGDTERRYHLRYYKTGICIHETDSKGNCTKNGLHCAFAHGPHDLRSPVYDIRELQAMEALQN

B1: chr1:111986530:111986531:-_ENSG00000116455_ENST00000235090|hu_hu|motif|central (ssRNA)
RNA: GGGAGUUCUACAGUCCGACGAUCACUGCAGCCAAUCUGUGAUGCUGGCUUGGGACAGCGGGUAUCCCAGAGUAAAAUUCGGUUGUCCUCGCUGCAUGAAAGAAACACAGAGUCCUUGUGAGGAGAGGCAGCAACACAAGUGACCAACAGAGGAUUGAGCAUCA
B2: chr15:66811301:66811302:+_ENSG00000174442_ENST00000446801|hu_hu|FALSE|FALSE (ssRNA)
RNA: GGGAGUUCUACAGUCCGACGAUCCUCAGCUCCUAGCCAACAAGUACCUUCAGGAUCUGAACUGUCACAUCUUACCCAAAGGGGAGGAAGGGCAGUAACUGGCAGAUUAAUCUUCAAAUGGGUCAUAUUAGGAUUGUGAGCCAUCAACAGAGGAUUGAGCAUCA
B3: chr2:53077437:53077438:+_ENSMUSG00000026960_ENSMUST00000028336|mus_mus|motif|central (ssRNA)
RNA: GGGAGUUCUACAGUCCGACGAUCACAUUUAAAGCUUAAUUAAUAACAACAAGAACCCUUGAUAUGACAAGUACAGUAUCGGUAAUAUAUUACAACAUACAUAUUACAGUUAAAUUAUAUGUACACAUACAGAGUAUCAAAAUACAACAGAGGAUUGAGCAUCA
B4: chr5:134191040:134191041:+_ENSG00000181904_ENST00000394976|hu_hu|motif|central (ssRNA)
RNA: GGGAGUUCUACAGUCCGACGAUCAAAAGCAGCAGUGCCACAGCCAUAACCAAGAUCGGCAAGACGGGAUAGAGCUUUAAUGCGGCCUGGAGGUCUGCCUGGGCUGACUUUGUAUCCCGCAGCUUUAGUUGUCCCCAAAGGUCUCAACAGAGGAUUGAGCAUCA
B5: chr11:119170673:119170674:+_ENSG00000110395_ENST00000264033|hu_hu|FALSE|FALSE (ssRNA)
RNA: GGGAGUUCUACAGUCCGACGAUCGUGGGAACUGAAGGACACCUUCAAAUGCACUCAAGACCCAUAAAAUAAUAAAACAUACUAGCUGCUCCAUUUUCAUUUCACCACUUUGAAAUCUUGGAACCACUGAUGUGAUAUCCCACACAACAGAGGAUUGAGCAUCA
B6: chr16:5026692:5026693:-_ENSMUSG00000022536_ENSMUST00000115844|mus_hu|FALSE|FALSE (ssRNA)
RNA: GGGAGUUCUACAGUCCGACGAUCACCCAUUUUUAGCAAGUUGGAGACGAUUCCACUUCCCAUGAGACCAAGGCCCAAAAAUCCUAUCUUUUUGUCUGUGGGUGUGAUGCUGCCAUUCACGGCUGUGCUGUCAGCUGCCUGGAUCAACAGAGGAUUGAGCAUCA
B7: chr11:122930872:122930873:-_ENSG00000109971_ENST00000227378|hu_mus|FALSE|FALSE (ssRNA)
RNA: GGGAGUUCUACAGUCCGACGAUCGACCUUCUUAUCUAAGCCGUAAGCAAUAGCAGCAGCAGUUGGUUCAUUGAUGAUUCGAAGUACAUUGAGGCCAGCAAUAGUUCCAGCAUCUUUUGUUGCCUGUCGCUGAGAGUCAUUGAACAACAGAGGAUUGAGCAUCA
B8: chr8:127356239:127356240:+_ENSMUSG00000036913_ENSMUST00000167588|mus_hu|motif|central (ssRNA)
RNA: GGGAGUUCUACAGUCCGACGAUCGCCCAGGCUCAAUCCGGAAAGCACCACCCUCCUCAAACUUGGUGGGCCAUAGGGCACCGGGGGCGCUGUUGCAACUACAAAGUACAUAUCAGGCUGAAGAUGCAGCCUGGAAAUAUAUACCAACAGAGGAUUGAGCAUCA
B9: chr5:128448638:128448639:+_ENSG00000066583_ENST00000173527|hu_mus|hu_hu_hu_mus_False|78_78 (ssRNA)
RNA: GGGAGUUCUACAGUCCGACGAUCGGCACUCGCCUUAAUUAGGUUCUGAAUUUCCUUGAAUUUUGGAUGGUCUUUGUCAGCCACCAGCUGUAGGAGGACAGCCUCACUAGUGGUCACGAUGAUCCCAGUGCGGGCAAGACGCUCCAACAGAGGAUUGAGCAUCA
B10: chr6:124662746:124662747:+_ENSMUSG00000004264_ENSMUST00000004375|mus_mus|FALSE|FALSE (ssRNA)
RNA: GGGAGUUCUACAGUCCGACGAUCUUCGGCCAGGAUCGUGUCCUGCUGCACGCCACCAAUACGAUUAAAAAAGAUGGCUCUAUGACCGCCUUCCACGGUGAACACGGAUUCGCGGACGCCGUAGGCCACCGCCCCGGCCCCCAGCAACAGAGGAUUGAGCAUCA
B11: chr10:126492284:126492285:-_ENSMUSG00000040502_ENSMUST00000040307|mus_mus|FALSE|FALSE (ssRNA)
RNA: GGGAGUUCUACAGUCCGACGAUCAUGCACACCACUAACCCACACCCCCAGCCCUUAGACCCACAUUCCCCAAAUCCUUUCUAUAAUAAAUAAGAGUUCUUACGCCUCUCUCUCUCAGUAAUACCAUUAGCCGGGCACACCUGGCAACAGAGGAUUGAGCAUCA
B12: chr1:163117127:163117128:-_ENSG00000143248_ENST00000313961|hu_mus|hu_hu_hu_mus_False|1_58 (ssRNA)
RNA: GGGAGUUCUACAGUCCGACGAUCUGCUACAAAGGAUGUAACUCAACUCACAGGGCAACUUUUGGAAGCCUGACCAGAUUACUACUUGAUUAGCUCCUUAUAAAAUUCAGAGCGCACAAAGCGGGGCAGAGAAUCCUUUUCCAUCAACAGAGGAUUGAGCAUCA
B13: chr1:46159212:46159213:+_ENSG00000159596_ENST00000372025|hu_mus|hu_hu_hu_mus_True|8_8 (ssRNA)
RNA: GGGAGUUCUACAGUCCGACGAUCUCUGAUCCCUCCCAAGAAAGCUAGGAAACCGGCUCCAUAAGCCAUCUGAGUGAAAGCUAGGACGGGGAUAUAAGACUUUGUUAUUACCAUGAGAAGUGGGGGAGCAACGAAGGGGAUUAACAACAGAGGAUUGAGCAUCA
B14: chr3:94910677:94910678:-_ENSMUSG00000028126_ENSMUST00000107236|mus_mus|FALSE|FALSE (ssRNA)
RNA: GGGAGUUCUACAGUCCGACGAUCACUUGAGCCGGGCCCCGGGAGUCCCGCGUCUCGGAUAGAACAAACCUAAAGGAAAACCUAGGCACCUGAGGUGCCCCCAAAAGCGAAUGCCCCCCCUCCCUCACCUCCCCAGCCACUGCCCAACAGAGGAUUGAGCAUCA

The other results are listed elsewhere or left out.

This test has as its target T1, UNK ZnF1-3. Kind of test: nsRBNS (natural sequence RNA bind-n-seq); RBNS binding buffer (assumed for nsRBNS): 25 mM Tris pH 7.5, 150 mM KCl, 3 mM MgCl2, 0.01% Triton X-100, 500 ug/ml BSA, 20 U/ml SUPERase-In, 4 C; UNK is unkempt and MSI1 is Musashi-1; names of the RNAs are library labels; protein concentration not given here; high values mean tight binding.
Take B1: the binding signal was 1.94 enrichment R.
On to B2, for which the binding signal was found to be 1.45 enrichment R.
As for B3, the figure is 1.42 enrichment R.
For the molecule B4, the binding signal turned out to be 1.39 enrichment R.
As to B5, the binding signal came out at 1.14 enrichment R.
The molecule B6 had a binding signal of 1.06 enrichment R.
As for B7, the figure is 1.28 enrichment R; as for B8, 1 enrichment R; as for B9, 0.875 enrichment R.
B10 registered a binding signal of 0.531 enrichment R.
Next, B11: 2.62 enrichment R; B12: 1.1 enrichment R.
Molecule B13 had a binding signal of 1.74 enrichment R.
In turn, B14 had a binding signal of 1.96 enrichment R.
